Source: paper PMC10582448, “The Histone Chaperones SET/TAF‐1β and NPM1 Exhibit Conserved Functionality in Nucleosome Remodeling and Histone Eviction in a Cytochrome c‐Dependent Manner” (Advanced Science, 2023)

Legend:
Assay in all cases: optical tweezers with confocal fluorescence microscopy; λ DNA held at 10 pN, incubated ≈30 s in 100 nM of one core histone, then brought into 5 nM fluorescently labelled chaperone and imaged for 5 min; 25 mM HEPES, 50 mM KCl, 0.1 mM EDTA, pH 7.5; controls without histones showed no chaperone binding
Settings in all cases: both partners purified
[1] = biological target: core histone H2A from Xenopus laevis (Xenopus laevis, UniProt P06897)
[2] = biological target: core histone H2B from Xenopus laevis (Xenopus laevis, UniProt P02281)
[3] = biological target: T1, core histone H4 from Xenopus laevis (Xenopus laevis, UniProt P62799)
T1 construct: Histone H4, Xenopus laevis, pET3a plasmid from Dr. Tim Richmond

Measured: binding result

B1: SET/template‐activating factor‐Iβ Q69C, labelled with Alexa Fluor 532 (natural protein)
chain: not shown
modifications: Alexa Fluor 532 C5 maleimide on the introduced cysteine (Q69C); labelling efficiency ≈95%
notes: SET/TAF-Iβ, human, full-length construct with the point mutation Q69C; The N-terminal 6xHis tag is told for the wild type construct in pET28a(+); also called SET/TAF‐Iβ; SET/TAF‐Iβ‐Q69C; source: E. coli BL21(DE3); after labelling passed over Superdex 200 size exclusion column
binds: all assays above
